Values joined by “and” are separate entries in the source; they are usually repeats but may differ in a detail not shown here. Identical values can stand only once. Hit rate of the full screen: of about 410,000 compounds, about 6,400 (1.6%) were called active. This list was built around the results that the source calls inconclusive (neither active nor inactive); the mix of calls is not that of the screen. Calls follow the shape of the dose curve; as a rule, active = well fitted inhibition curve with a large enough effect; inconclusive = small, poorly fitted or top-dose-only effect; inactive = no such curve, though single readings can be large or run the other way. Potencies beside an inconclusive call are fits to weak or partial responses and may not hold up.
The molecules below were run against Glucagon-like peptide 1 receptor (Homo sapiens) (UniProt P43220) (assay: qHTS of GLP-1 Receptor Inverse Agonists (Inhibition Mode)). Details: HEK293 GLP-1R CRE-luciferase, luminescence, 24 h, GLP-1R form is constitutively active; series mostly up to 38.3 µM.
Summary of the method: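 HEK293 cells stably co-expressing constitutively active GLP-1R and a cAMP-responsive luciferase reporter were seeded in DMEM with 10% Nu serum, given compounds after 12 h, and incubated 24 h at 37 deg C. Luminescence was then read.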
Also: nearly all actives have a fitted effect of over 55% in size.
Potency is read from the fitted curve at half-maximal effect; tags tell the direction and shape of the fitted curve.

UniProt P43220, sequence (P43220 whole entry, looked up): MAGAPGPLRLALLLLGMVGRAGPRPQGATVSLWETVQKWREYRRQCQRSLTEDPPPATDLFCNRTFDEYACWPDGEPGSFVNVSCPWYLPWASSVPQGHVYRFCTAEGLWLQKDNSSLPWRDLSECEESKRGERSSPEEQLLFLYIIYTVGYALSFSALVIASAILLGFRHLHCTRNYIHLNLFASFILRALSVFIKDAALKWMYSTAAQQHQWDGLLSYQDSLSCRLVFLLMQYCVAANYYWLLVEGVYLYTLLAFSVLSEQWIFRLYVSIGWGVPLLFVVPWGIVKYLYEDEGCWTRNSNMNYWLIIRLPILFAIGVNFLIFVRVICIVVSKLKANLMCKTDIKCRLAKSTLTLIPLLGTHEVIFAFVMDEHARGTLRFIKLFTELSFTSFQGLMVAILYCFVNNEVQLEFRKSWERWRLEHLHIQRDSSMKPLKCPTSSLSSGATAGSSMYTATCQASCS

Q: With `CCOC(=O)C1=CCN(S(=O)(=O)c2ccc(C)cc2)C1c1cccs1` (centres undefined) as the molecule, how does the Potency read?
A: inconclusive: 28.2 µM [inhibitor, single point]

Q: Which Potency does the source give for `Cc1ccc(CC2C(=O)N(c3cc(C)ccc3C)C(=O)C2C)cc1` (centres undefined) here?
A: inconclusive: 10 µM [inhibitor, partial curve]

Q: With `Cc1cc(NC(=O)CCCS(=O)(=O)c2nc(-c3cccs3)cc(C(F)(F)F)n2)no1` as the molecule, how does the Potency read?
A: inconclusive: 28.2 µM [inhibitor, single point]

Q: For `CC1(Cc2ccc(Cl)cc2)C(=O)Nc2c(Cl)ccc(Cl)c21` (centres undefined), which Potency is on record?
A: inconclusive: 28.2 µM [inhibitor, single point]

Q: `CC(NCc1ccc2c(c1)OCO2)C(=O)NC1CCCc2ccccc21` (centres undefined) was tested. Which Potency did it give?
A: inconclusive: 3.98 µM [inhibitor, partial curve, poor fit]

Q: How did the Potency turn out when `Cn1cccc1/C=C(/C#N)c1ccc(F)cc1` was run?
A: inconclusive: 12.6 µM [inhibitor, partial curve, poor fit]

Q: How did the Potency turn out when `Cc1ccc(-c2nnn(CC(=O)N(CCCO)C(C(=O)NC3CCCC3)c3ccc(Cl)cc3)n2)o1` (centres undefined) was run?
A: inconclusive: 5.01 µM [inhibitor, partial curve]

Q: `CC(=O)CSc1nnc(-c2ccc3c(c2)OCO3)o1` was tested. Which Potency did it give?
A: inconclusive: 7.94 µM [inhibitor, partial curve, poor fit]

Q: Which Potency does the source give for `Cc1nn(C(=O)c2c(F)cccc2F)c(C)c1S(=O)(=O)N1CCCCCC1` here?
A: inactive

Q: How did the Potency turn out when `O=C(/C=C/NNC(=O)c1cccc(Br)c1)c1cccc(Br)c1` was run?
A: inconclusive: 25.1 µM [inhibitor, single point]

Q: `CCN(C(=O)CSc1ncccc1C(=O)OC(C)C)c1cccc(C)c1` was tested. Which Potency did it give?
A: inconclusive: 11.2 µM [inhibitor, single point]

Q: For `COc1ccc(CNC(=O)c2c(-c3cc(Cl)c(OC)c(Cl)c3)noc2C)cc1`, which Potency is on record?
A: inconclusive: 12.6 µM [inhibitor, partial curve, poor fit]

Q: Which Potency does the source give for `O=C(CSc1nnc(-c2cccnc2)o1)Oc1ccccc1` here?
A: inactive

Q: With `CCCC1(c2ccccc2)NC(=O)N(CC(=O)Nc2cc(OC)cc(OC)c2)C1=O` (centres undefined) as the molecule, how does the Potency read?
A: inconclusive: 12.6 µM [inhibitor, single point]

Q: How did the Potency turn out when `O=C(Nc1ccccc1N1CCCC1)c1cccc(-c2cc3ccccc3oc2=O)c1` was run?
A: inconclusive: 6.31 µM [inhibitor, partial curve, poor fit]

Q: `CCCc1nnc(NC(=O)Nc2ccccc2Cl)s1` was tested. Which Potency did it give?
A: inconclusive: 11.2 µM [inhibitor, single point]

Q: `COc1ccc2sc(N(CCCN(C)C)C(=O)c3ccc(S(=O)(=O)N(C)Cc4ccccc4)cc3)nc2c1` was tested. Which Potency did it give?
A: inconclusive: 14.1 µM [inhibitor, partial curve, poor fit]

Q: For `Cc1occc1C(=O)N(Cc1nc(-c2ccccc2)no1)C(C)C`, which Potency is on record?
A: inconclusive: 12.6 µM [inhibitor, partial curve, poor fit]

Q: How did the Potency turn out when `Cc1ccc(OCc2cc(C(=O)NC3CCc4ccccc43)no2)cn1` (centres undefined) was run?
A: inconclusive: 28.2 µM [inhibitor, single point]

Q: `O=C(NCCO)c1cccc(-c2cnc3c(Nc4cccc(OC(F)(F)C(F)F)c4)nccn23)c1` was tested. Which Potency did it give?
A: inconclusive: 11.2 µM [inhibitor, partial curve, poor fit]

Q: For `Cc1ccccc1-c1nc(CS(=O)(=O)CC(=O)NC2CCCCC2C)c(C)o1` (centres undefined), which Potency is on record?
A: inconclusive: 12.6 µM [inhibitor, partial curve, poor fit]

Q: For `COc1cc(CNCCN(C)C)ccc1OCc1c(F)cccc1Cl`, which Potency is on record?
A: inconclusive: 11.2 µM [inhibitor, partial curve, poor fit]

Q: How did the Potency turn out when `Cc1ccc(NC(=O)CN(C)C(=O)c2cccc(S(=O)(=O)NCc3cccs3)c2)cc1` was run?
A: inconclusive: 15.8 µM [inhibitor, partial curve, poor fit]

Q: Which Potency does the source give for `CCC(=O)Nc1ccc(-c2cc(-c3ccccc3)nc(-c3ccc(NC(=O)CC)cc3)n2)cc1` here?
A: inconclusive: 22.4 µM [inhibitor, single point]

Q: `CC(OC(=O)c1n[nH]c2ccccc12)C(=O)NC1CCCCC1C` (centres undefined) was tested. Which Potency did it give?
A: inconclusive: 1 µM [inhibitor, full curve, poor fit]

Q: `O=C(Cc1ccccc1[N+](=O)[O-])NCc1ccccc1Cl` was tested. Which Potency did it give?
A: inconclusive: 28.2 µM [inhibitor, single point]

Q: For `C=C1C2(C(=O)Nc3ccc(SC(F)F)cc3)CCC(C2)C1(C)C` (centres undefined), which Potency is on record?
A: inconclusive: 1.58 µM [inhibitor, full curve, poor fit]

Q: `CCOC(=O)C(=CNc1cc(C)nn1-c1ccccc1)C(=O)OCC` was tested. Which Potency did it give?
A: inactive

Q: How did the Potency turn out when `Cc1ccc(NC(=O)CSc2nc3ccccc3nc2N2CCOCC2)cc1` was run?
A: inconclusive: 12.6 µM [inhibitor, partial curve, poor fit] and inconclusive: 3.55 µM [inhibitor, partial curve]

Q: How did the Potency turn out when `CCN(CC)P(=O)(Nc1ccc(SC(F)F)cc1)c1ccc(N(C)C)cc1NC(=O)c1ccco1` (centres undefined) was run?
A: active: 2.51 µM

Q: With `O=C(NCCSc1c[nH]c2ccccc12)c1c(F)cccc1F` as the molecule, how does the Potency read?
A: inconclusive: 14.1 µM [inhibitor, single point]

Q: For `Cc1ccc2cc3cc(C(=O)NCc4ccco4)oc3nc2c1`, which Potency is on record?
A: inactive

Q: With `Cc1ccc(C(c2nnnn2Cc2cccs2)N2CCN(Cc3ccc4c(c3)OCO4)CC2)cc1` (centres undefined) as the molecule, how does the Potency read?
A: inconclusive: 4.47 µM [inhibitor, partial curve, poor fit]

Q: `CC(=O)Nc1cccc(-c2ccnc3c2CC(C(=O)Nc2ccc(Cl)cc2)O3)c1` (centres undefined) was tested. Which Potency did it give?
A: inconclusive: 12.6 µM [inhibitor, single point]

Q: How did the Potency turn out when `O=C(Nc1ccccc1)Oc1cccc2cccnc12` was run?
A: active: 3.98 µM

Q: Which Potency does the source give for `CCOc1ccc(N(CC(=O)N2CCCCC2)S(=O)(=O)c2ccc(Cl)cc2)cc1` here?
A: inconclusive: 20 µM [inhibitor, single point]

Q: `CCOc1ccc(N2CC(NC(=O)c3ccc(S(=O)(=O)N4CCCCC4)cc3)CC2=O)cc1` (centres undefined) was tested. Which Potency did it give?
A: inactive

Q: For `Cc1ccc(-c2cc(C(F)(F)F)n3nc(C(=O)NCC45CC6CC(CC(C6)C4)C5)cc3n2)cc1`, which Potency is on record?
A: inactive

Q: How did the Potency turn out when `O=C(Nc1cccs1)Nc1ccc(Br)cc1F` was run?
A: inconclusive: 11.2 µM [inhibitor, partial curve, poor fit]

Reference: PubChem BioAssay AID624417 (National Center for Advancing Translational Sciences (NCATS), 2012)
